Here are results for seven cell lines from the supplement of paper PMC4967469.

Common to all, as to assay: Viability of human cancer cell lines after 72 h of drug (GDSC screen)
Compound in one assay: CCCC(=O)OCc1ccc(OC(=O)/C=C(C)/C=C/C=C(C)/C=C/C2=C(C)CCCC2(C)C)cc1 [VNLG/124]
The conditions noted are these: top dose 5.12 µM; top dose inferred. How it is done: (§1)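 Human cancer cell lines in 384-well plates, medium with 10% serum, drug for 72 h over a 256-fold dose range (nine 2-fold or five 4-fold steps up to the top dose). Adherent lines were fixed and stained with the nucleic acid dye Syto60, suspension lines read with resazurin; signal relative to control wells, capped at 0 and 100%. One two-parameter sigmoid per drug and line, fitted in a mixed model over all curves with the slope shared within a line.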

Compound in the next assay: CN(NC(=O)CC(=O)NN(C)C(=S)c1ccccc1)C(=S)c1ccccc1 [Elesclomol]
The conditions noted are these: top dose 0.2 µM; top dose inferred. How it is done:
as §1

Compound in the next assay: Cc1c(N)nc([C@H](CC(N)=O)NC[C@H](N)C(N)=O)nc1C(=O)N[C@H](C(=O)N[C@H](C)[C@@H](O)[C@H](C)C(=O)N[C@H](C(=O)NCCc1nc(-c2nc(C(=O)NCCC[S+](C)C)cs2)cs1)[C@@H](C)O)[C@@H](OC1OC(CO)C(O)C(O)C1OC1OC(CO)C(O)C(OC(N)=O)C1O)c1cnc[nH]1 [Bleomycin]
How it is done: as §1

Compound in a further assay: Cc1ccc(NC(=O)c2ccc(CN3CCN(C)CC3)cc2)cc1Nc1nc(-c2cccnc2)cs1 [Masitinib]
The conditions noted are these: top dose 20 µM. As for the experimental part:
as §1

Compound in a further assay: O=C(/C=C/c1ccc(CN(CCO)CCc2c[nH]c3ccccc23)cc1)NO [LAQ824]
The conditions noted are these: top dose 1.024 µM; top dose inferred. As for the experimental part: as §1

Compound in another assay: O=C(Nc1ccc(OC(F)(F)F)cc1)c1sccc1NCc1ccnc2ccccc12 [OSI-930]
The conditions noted are these: top dose 10.24 µM. How it is done:
as §1

Compound in a further assay: O=C(Nc1cccc(Nc2ncc(Br)c(NCCc3cnc[nH]3)n2)c1)N1CCCC1 [BX-912]
The conditions noted are these: top dose 10.24 µM; top dose inferred. As for the experimental part:
as §1

Compound in the next assay: O=S(=O)(O)c1ccc2cc(N=Nc3cc(S(=O)(=O)O)c4cccnc4c3O)ccc2c1 [NSC-87877]
The conditions noted are these: top dose 16 µM; top dose inferred. How it is done:
as §1

Where [1] appears, read: top dose 50 µM, screen: GDSC drug entry 1378, top dose inferred.
The mark [2] stands for this setting: top dose 64 µM, screen: GDSC drug entry 190.

The IC50 comes from the fitted curve, where viability falls to half of the control; fits outside the tested doses are given as limits. For AUC the same curve is integrated over the 256-fold range of doses and scaled to a fraction; it is 1 without any effect and falls as sensitivity rises. For part of these data: An inferred top dose was calculated from the reported fits. For part of these data: An entry number marks a drug with two screens in the source, which often give different values.

What is called IC50 is the concentration at which inhibition is half-maximal. Turning to HCC1187 (breast, suspension), the AUC with VNLG/124 was found to be 0.987; in the assay with Elesclomol it was 0.723; with Bleomycin (setting [1]) it was 0.45; in the assay with Bleomycin (setting [2]), 0.785; with Masitinib, 0.946; with LAQ824 it was 0.932. Also, the AUC with OSI-930 amounted to 0.918; with BX-912 it was 0.561; with NSC-87877, 0.986. The IC50 was greater than 5.12 µM with VNLG/124; 0.0518 µM in the assay with Elesclomol; 2.29 µM with Bleomycin (setting [1]); 26 µM in the assay with Bleomycin (setting [2]); greater than 20 µM with Masitinib; greater than 1.02 µM in the assay with LAQ824. Moreover, the IC50 is greater than 10.2 µM in the assay with OSI-930, 0.929 µM in the assay with BX-912 and greater than 16 µM with NSC-87877.
BB30-HNC (head and neck, adherent): the AUC turned out to be 0.983 with VNLG/124; 0.428 with Elesclomol; 0.068 with Bleomycin (setting [1]); 0.051 in the assay with Bleomycin (setting [2]); 0.884 in the assay with Masitinib; 0.417 with LAQ824. Besides, the AUC with OSI-930 was found to be 0.959; with BX-912 it was 0.872; with NSC-87877, 0.979. In addition, the IC50 was greater than 5.12 µM with VNLG/124; 0.00796 µM with Elesclomol; less than 0.195 µM with Bleomycin (setting [1]); less than 0.25 µM with Bleomycin (setting [2]); greater than 20 µM with Masitinib; 0.038 µM with LAQ824. Also, the values for the IC50 with OSI-930, with BX-912 and in the assay with NSC-87877 were greater than 10.2 µM, 9.43 µM and greater than 16 µM, respectively.
Consider LS-411N (large intestine, adherent), for which the AUC was 0.969 with VNLG/124; 0.8 with Elesclomol; 0.746 in the assay with Bleomycin (setting [1]); 0.28 with Bleomycin (setting [2]); 0.886 with Masitinib; 0.383 with LAQ824. The results for the AUC in the assay with OSI-930, with BX-912 and in the assay with NSC-87877 were 0.951, 0.876 and 0.982, respectively. Besides, the IC50 is greater than 5.12 µM in the assay with VNLG/124; 0.122 µM with Elesclomol; 18.9 µM with Bleomycin (setting [1]); 0.822 µM with Bleomycin (setting [2]); greater than 20 µM with Masitinib; 0.0283 µM in the assay with LAQ824. For the same cell line, the figures for the IC50 with OSI-930, with BX-912 and in the assay with NSC-87877 were greater than 10.2 µM, greater than 10.2 µM and greater than 16 µM, respectively.
For the cell line HCC1500 (breast, adherent), the AUC in the assay with VNLG/124 was 0.93; in the assay with Elesclomol, 0.927; with Bleomycin (setting [1]), 0.935; in the assay with Bleomycin (setting [2]) it was 0.213; with Masitinib it was 0.912; in the assay with LAQ824 it was 0.439. Besides, the AUC with OSI-930 worked out at 0.962; in the assay with BX-912, 0.987; with NSC-87877, 0.988. Besides, the IC50 in the assay with VNLG/124 was greater than 5.12 µM; in the assay with Elesclomol it was greater than 0.2 µM; with Bleomycin (setting [1]), greater than 50 µM; with Bleomycin (setting [2]), 0.553 µM; with Masitinib, greater than 20 µM; with LAQ824 it was 0.0433 µM. The IC50 with OSI-930 is greater than 10.2 µM; with BX-912 it was greater than 10.2 µM; with NSC-87877 it was greater than 16 µM.
With C-33-A (cervix, adherent), the AUC with VNLG/124 came to 0.979; with Elesclomol, 0.41; with Bleomycin (setting [1]) it was 0.258; in the assay with Bleomycin (setting [2]), 0.219; with Masitinib, 0.893; in the assay with LAQ824, 0.413. For the same cell line, the values for the AUC with OSI-930, in the assay with BX-912 and in the assay with NSC-87877 were 0.964, 0.954 and 0.953, respectively. For the same cell line, the IC50 is greater than 5.12 µM with VNLG/124; 0.00709 µM in the assay with Elesclomol; 0.633 µM with Bleomycin (setting [1]); 0.6 µM with Bleomycin (setting [2]); greater than 20 µM with Masitinib; 0.0369 µM with LAQ824. Moreover, the IC50 with OSI-930 was greater than 10.2 µM; with BX-912 it was greater than 10.2 µM; with NSC-87877, greater than 16 µM.
As to U251 (glioma, adherent), the AUC with VNLG/124 worked out at 0.985; with Elesclomol, 0.47; with Bleomycin (setting [1]) it was 0.22; with Bleomycin (setting [2]), 0.512; in the assay with Masitinib, 0.853; in the assay with LAQ824, 0.568. The AUC with OSI-930 was determined as 0.933; with BX-912, 0.805; with NSC-87877, 0.986. For the same cell line, the IC50 with VNLG/124 is greater than 5.12 µM; in the assay with Elesclomol, 0.0104 µM; with Bleomycin (setting [1]) it was 0.498 µM; with Bleomycin (setting [2]), 4.31 µM; with Masitinib, 14.5 µM; in the assay with LAQ824 it was 0.097 µM. Moreover, the values for the IC50 with OSI-930, in the assay with BX-912 and with NSC-87877 were greater than 10.2 µM, 4.87 µM and greater than 16 µM, respectively.
As for DU-145 (prostate, adherent), the AUC is 0.973 in the assay with VNLG/124; 0.884 in the assay with Elesclomol; 0.708 in the assay with Bleomycin (setting [1]); 0.279 with Bleomycin (setting [2]); 0.978 with Masitinib; 0.414 in the assay with LAQ824. Also, the AUC with OSI-930 is 0.961; in the assay with BX-912, 0.984; in the assay with NSC-87877, 0.984. The IC50 was greater than 5.12 µM in the assay with VNLG/124; greater than 0.2 µM in the assay with Elesclomol; 13.1 µM with Bleomycin (setting [1]); 0.869 µM in the assay with Bleomycin (setting [2]); greater than 20 µM with Masitinib; 0.0362 µM with LAQ824. For the same cell line, the IC50 with OSI-930 is greater than 10.2 µM; with BX-912, greater than 10.2 µM; with NSC-87877, greater than 16 µM.
